# In PubChem BioAssay AID624296 (National Center for Advancing Translational Sciences (NCATS), 2012):
# The whole screen tested about 350,000 compounds, of which about 9,900 (2.8%) were called active. The inconclusive results got no clear call from the source; some entries with a clear call stand among them for comparison. Calls follow the shape of the dose curve; as a rule, active = well fitted activation curve with a large enough effect; inconclusive = small, poorly fitted or top-dose-only effect; inactive = no such curve, though single readings can be large or run the other way. Potencies of inconclusive entries are left out as doubtful fits.
# Test: A quantitative high throughput screen for small molecules that induce DNA re-replication in MCF 10a normal breast cells. Also: nearly all actives have a fitted effect of over 50% in size. As to activity, positive = re-replication: % of control where 0% means no effect.
# Settings: MCF 10A DNA re-replication, Hoechst nuclear intensity, 48 h; activity, positive = re-replication: at 46.1 µM (top of the series)
# Potency is read from the fitted curve at half-maximal effect; tags tell the direction and shape of the fitted curve.
Compound,Potency,"activity, positive = re-replication"
CCOc1cc(CNCCc2ccc(S(N)(=O)=O)cc2)ccc1OCc1ccc(Cl)cc1,"inconclusive [activator, single point]",–
Cc1cccn2c(=O)c3cc(C(=O)NCCc4ccccc4)c(=N)n(CC4CCCO4)c3nc12 (centres undefined),"inconclusive [activator, full curve]",–
Cc1nnc(SCC(=O)Nc2cc(C(C)(C)C)nn2-c2ccccc2)s1,"inconclusive [activator, partial curve, poor fit]",–
O=C(CNC(=O)c1ccccc1Cl)NC1CCN(Cc2ccccc2)CC1,"inconclusive [activator, single point]",–
CC#CCC(CC#CC)c1nc2ccccc2c(=O)n1N,"inconclusive [activator, partial curve, poor fit]",–
OC1CCCC1NCc1ccnc2cc(Cl)ccc12 (centres undefined),–,inactive: 2.87%
CCOC(=O)c1[nH]c2ccccc2c1NC(=O)c1cc(OC)c(OC)c(OC)c1,–,inactive: -1.97%
Cc1cccc(CCN2C(N(C)C)=NC[C@@H]2CC(C)C)c1,–,inactive: 22.2%
COc1ccc(OCC(=O)C2CC2)c(C#N)c1,–,inactive: 0.553%
O=C1CCCN1CCCNC(=S)Nc1ccc(F)cc1,"inconclusive [activator, full curve, poor fit]",–
COc1ccccc1C(CNC(=O)c1ccc(C)c(S(=O)(=O)N2CCCCC2)c1)N1CCCC1 (centres undefined),"inconclusive [activator, single point]",–
Cc1ccc(S(=O)(=O)N2CCC(=O)N(C(COCc3cccc(C)c3)Cc3ccccc3)CC2)cc1 (centres undefined),active: 8.2 µM,–
Cc1ccc(N(Cc2cc(=O)[nH]c3ccccc23)C(=O)CCl)c(C)c1,"inconclusive [activator, single point]",–
CCCCNC(=O)CCn1c(=O)c2cccn2c2ccc(F)cc21,"inconclusive [activator, single point]",–
COc1ccc(-c2cc([C@H]3[C@H]4C=CC[C@@H](C)[C@@H]4C(=O)N3Cc3ccccc3)ccc2F)cc1,"inconclusive [activator, partial curve, poor fit]",–
Cc1ccc(NC(=O)COc2coc(CN3CCN(Cc4ccccc4)CC3)cc2=O)cc1,"inconclusive [activator, single point]",–
CC1CCCN(C(=O)c2ccc(OC3CCN(CCc4ccccc4)CC3)cc2)C1 (centres undefined),"inconclusive [activator, single point]",–
CCOC(=O)C1(Cc2cccc(OC)c2)CCN(CC(O)CO)CC1 (centres undefined),–,inactive: -8.93%
COc1ccc(C(=O)NCCc2nnc(SCC(=O)Nc3ccc(Br)cc3)n2C)cc1,"inconclusive [activator, single point]",–
N#CC(C#N)=C1C=CC=CN1/C(=C\c1ccco1)C(=O)c1ccc(Br)cc1,active: 3.26 µM,–
Cc1ccc(/C=N/NC(=O)CSc2nc3ccccc3s2)o1,–,inactive: 6.95%
COc1ccccc1C1c2[nH]c3ccccc3c2C[C@H]2C(=O)N(C3CCN(Cc4ccccc4)CC3)CC(=O)N12 (some centres undefined),–,inactive: 23%
CN(C)S(=O)(=O)c1ccc(NC(=O)Cn2c(-c3ccccc3)noc2=O)cc1,–,inconclusive: -15.3% [activator]

Compound,Potency,"activity, positive = re-replication"
COc1ccccc1C1CC(c2ccccc2)=NN1C(=S)Nc1ccccc1 (centres undefined),"inconclusive [activator, partial curve, poor fit]",–
COc1cc(C(=O)NNC(=O)COc2ccccc2Cl)ccc1OCC(=O)N1CCOCC1,–,inactive: -1.98%
CCCNC(=O)c1nnsc1S(=O)c1ccc(Cl)cc1 (centres undefined),active: 3.26 µM,–
O=[N+]([O-])c1ccccc1/C=C/CN1CCCC(CO)C1 (centres undefined),"inconclusive [activator, single point]",–
COc1ccccc1NC(=O)CN(Cc1ccco1)C(=O)c1ccc(-n2nc(C)cc2C)cc1,–,inactive: 2.17%
O=C(CN(c1cccc(Cl)c1)S(=O)(=O)c1ccc(Cl)cc1)N1CCc2ccccc2C1,–,inconclusive: 94.8% [activator]
CCCc1cc(=O)[nH]c(SCC(=O)Nc2ccc(Cl)c(S(=O)(=O)N3CCOCC3)c2)n1,"inconclusive [activator, partial curve, poor fit]",–
CC(C)CCN(C(=S)Nc1cccc(C(F)(F)F)c1)C(C)c1ccccn1 (centres undefined),"inconclusive [activator, single point]",–
CC(C)(C)c1ccc(C(=O)N2CCC(C(=O)NCCC3=CCCCC3)CC2)cc1,"inconclusive [activator, single point]",–
Cc1ccc(NC(=O)NCC2CCN(Cc3cccc(Cl)c3)CC2)cc1Cl,"inconclusive [activator, single point]",–
O=C(O)CCN1C(=O)c2ccc(NC(=O)CSCc3ccccc3)cc2C1=O,"inconclusive [activator, full curve, poor fit]",–
Cc1cccc(NC(=O)NCc2cccnc2)c1C,–,inactive: 12.9%
N#Cc1cnc2cc(-c3ccccc3)nn2c1N,–,inactive: 12.7%
COc1ccc(Cl)cc1NC(=O)CNc1ccccc1N1CCOCC1,"inconclusive [activator, single point]",–
COc1ccc(-c2nc3ccc(C)cn3c2NCc2ccccc2)cc1SC1CCCCC1,active: 18.4 µM,–
O=C(OCc1ccccc1)c1ccc2c(c1)-c1ccccc1C2=O,"inconclusive [activator, single point]",–
CC(C)(C)NS(=O)(=O)c1cc2c3c(c1)CCN3C(=O)CC2,"inconclusive [activator, single point]",–
CC(O)/C=C/c1ccc2ccccc2n1 (centres undefined),active: 18.4 µM,–
O=C1C=CC(=O)N1c1ccc(OC(F)F)cc1,"inconclusive [activator, partial curve]",–
O=C(O)c1cc(O)c2c(c1)C(=O)c1cccc(O)c1C2=O,"inconclusive [activator, single point]",–
O=C(NN=C1c2ccccc2-c2ccccc21)c1cccc(Br)c1,"inconclusive [activator, single point]",–
Cc1nn(C2CCS(=O)(=O)C2)c(Cl)c1/C=C/C(=O)OCC(=O)c1c[nH]c2ccccc12 (centres undefined),"inconclusive [activator, single point]",–
CCN(CC(=O)NCc1ccc(Cl)cc1)C(=O)COc1cccc(Cl)c1,"inconclusive [activator, full curve, poor fit]",–

Compound,Potency,"activity, positive = re-replication"
COc1ccc(C2=NC(c3ccccc3)CO2)cc1 (centres undefined),–,inactive: 2.99%
O=C(O)CC1=C(Nc2ccccc2)C(=O)N(c2ccccc2)C1c1ccc(Br)cc1 (centres undefined),"inconclusive [activator, single point]",–
COc1ccccc1/C=C\C=N\NC(=O)CCn1nnc2ccccc21,"inconclusive [activator, single point]",–
COc1ccc(-n2cc(CNC3CCOCC3)c(-c3cccc(F)c3)n2)cc1,"inconclusive [activator, partial curve, poor fit]",–
CN1C2C=C3C(C#N)=C(N)C(C#N)(C#N)[C@@H](c4cccs4)C3C1CC2 (some centres undefined),"inconclusive [activator, single point]",–
Cc1cccc(NC(=O)CNC(=O)COc2ccc(C(=O)c3ccc(F)cc3)cc2)c1C,active: 14.6 µM,–
COc1cccc(/C=N/NC(=O)C[n+]2ccccc2)c1OC,"inconclusive [activator, full curve, poor fit]",–
O=C(/C=C/c1ccc2c(c1)OCO2)NC1CCCC1,–,inactive: -4.96%
Cn1cnc([N+](=O)[O-])c1Sc1nc(N)nc2c1ncn2Cc1ccccc1,"inconclusive [activator, single point]",–
NC(=O)c1cc2ccccc2o/c1=N\NC(=O)c1ccco1,–,inactive: -1.02%
CC(C)(C)N(Cc1ccccc1)C(=O)COC(=O)c1ccccc1SCC(=O)N1CCCC1,–,inactive: -15.7%
CC(/C=C1\SC(=O)N(CC(=O)Nc2ccc(O)cc2)C1=O)=C\c1ccccc1,"inconclusive [activator, single point]",–
O=C(COc1cccc2cccnc12)N1CCc2ccccc21,–,inactive: -4.19%
CCCc1nnc(SCC(=O)NC2CC2)n1CC,"inconclusive [activator, full curve, poor fit]",–
CC(C)NC(=O)N(C)C[C@@H]1Oc2ccc(NC(=O)Nc3ccc(C(F)(F)F)cc3)cc2CC(=O)N([C@H](C)CO)C[C@@H]1C,"inconclusive [activator, single point]",–
CNc1ncc(-c2nnnn2-c2ccccc2)c(-c2ccccc2)n1,"inconclusive [activator, single point]",–
O=C(O)Cc1ccc(NC(=O)c2cnccn2)cc1,–,inactive: -26.8%
COC(=O)c1sc(N/N=C/c2ccc(C(C)C)cc2)nc1C,active: 14.6 µM,–
COc1ccc(C(=O)/C=C/Nc2ccc(S(=O)(=O)Nc3cc(OC)nc(OC)n3)cc2)c(OC)c1,"inconclusive [activator, single point]",–
Cc1cccc(NC(=O)COc2ccccc2C(=O)NC(C)c2ccccc2)c1 (centres undefined),"inconclusive [activator, single point]",–
OCC1(CCOc2ccccc2)CCN(Cc2ccc3cccc(F)c3n2)CC1,"inconclusive [activator, full curve, poor fit]",–
O=C1CSC(=S)N1/N=C/c1ccc(O)c(O)c1O,–,inactive: 0.811%
CC(=O)Nc1cc2c3ccccc3ccc2c2ccccc12,"inconclusive [activator, partial curve, poor fit]",–
